In the supplement of paper PMC10126150:
Sequences with one replicate were seen in a single cluster, so their values are uncertain.
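Note: ATP exposure 15 min at 22 °C before imaging.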

Each sequence was assayed on ATP (assay: switch fluorescence ratio, 500 uM ATP over buffer (Cy3 cluster intensity, sum of 5 cycles each) (fold (ratio)); higher = stronger signal-on switching upon ATP binding; sequences stand for … in TCGTCGGCAGCGTCAGATGTGTATAAGAGACAGTTTTTTTTTTTTTTTTTTTTTTTTT…TC). Conditions: aptamer strand: ATP DNA aptamer (quencher-CACCTGGGGGAGTATTGCGGAGGAAGG + anchor), 100 nM annealed; ATP concentration: 500 uM; one replicate.
Method in brief: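 After annealing to 100 nM quencher-labelled ATP aptamer, Cy3-labelled switching-strand clusters on a modified Illumina MiSeq flow-cell were imaged in selection buffer. A second image followed after 15 min with 500 uM ATP at 22 °C, and five such buffer/ATP cycles were done, each separated by NaOH stripping and re-annealing. The fluorescence ratio, averaged per switch-domain sequence, is summed target-cycle over summed buffer-cycle Cy3 intensity per cluster, with clusters outside 100-1000 RFU excluded.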
With AAGTTACGGA the switch fluorescence ratio was 1.13. AAGTTATACC showed a switch fluorescence ratio of 1.03. Work on AAGTTCACGA yielded a switch fluorescence ratio of 1.05. AAGTTCCTG was tested, and the switch fluorescence ratio was 0.99. With AAGTTCGGCT the switch fluorescence ratio was 0.998. Sequence AAGTTGATGA has a switch fluorescence ratio of 1. AAGTTGCGGT was tested, and the switch fluorescence ratio was 1.02. AAGTTGCGTA gave a switch fluorescence ratio of 1.03. AAGTTGCTTA gave a switch fluorescence ratio of 1.01. For AAGTTTCCTG, the switch fluorescence ratio was 0.954. For AAGTTTCGG, the switch fluorescence ratio was 1.01. Sequence AAGTTTCTGT has a switch fluorescence ratio of 0.943. AAGTTTGAGA gave a switch fluorescence ratio of 1.02. Work on AATAAAATAG yielded a switch fluorescence ratio of 0.981. AATAAACGAA gave a switch fluorescence ratio of 0.941. In the case of AATAAACGTT, the switch fluorescence ratio is reported as 1.06. AATAACAAGA showed a switch fluorescence ratio of 1.06. Sequence AATAACACTG has a switch fluorescence ratio of 0.991. AATAACGTTG showed a switch fluorescence ratio of 1.01. With AATAAGAACG the switch fluorescence ratio was 0.942. In the case of AATAAGCAA, the switch fluorescence ratio is reported as 1.6. In the case of AATAAGTTGA, the switch fluorescence ratio is reported as 1. AATAATGCTA showed a switch fluorescence ratio of 0.989. AATAATGTAC gave a switch fluorescence ratio of 1.12. For AATAATTCC, the switch fluorescence ratio was 1.08. With AATACAACCT the switch fluorescence ratio was 1.66. AATACACGCG showed a switch fluorescence ratio of 1.05. AATACCGATA was tested, and the switch fluorescence ratio was 1.02. Work on AATACCGCTG yielded a switch fluorescence ratio of 0.988. With AATACGAGGG the switch fluorescence ratio was 1.07. Sequence AATACGC has a switch fluorescence ratio of 1.04. Sequence AATACGCCCC has a switch fluorescence ratio of 1.28. AATACTAATA showed a switch fluorescence ratio of 0.991. With AATACTCAGA the switch fluorescence ratio was 1.02. AATACTTTGT showed a switch fluorescence ratio of 1. AATAGAAAGA gave a switch fluorescence ratio of 1.01. Work on AATAGAACGC yielded a switch fluorescence ratio of 1.01. AATAGAACGG showed a switch fluorescence ratio of 1.03. Sequence AATAGATGAA has a switch fluorescence ratio of 0.983. AATAGCTCAT was tested, and the switch fluorescence ratio was 1.02. AATAGGCTTG was tested, and the switch fluorescence ratio was 1. AATAGGGAGT gave a switch fluorescence ratio of 0.977. In the case of AATAGTCTTC, the switch fluorescence ratio is reported as 1.03. Sequence AATATAATGG has a switch fluorescence ratio of 0.988. AATATACTAA showed a switch fluorescence ratio of 1.03. In the case of AATATAGGA, the switch fluorescence ratio is reported as 0.996. In the case of AATATCAATA, the switch fluorescence ratio is reported as 0.985. With AATATCTAGT the switch fluorescence ratio was 1.02. Sequence AATATCTCTT has a switch fluorescence ratio of 1.26. In the case of AATATGGATT, the switch fluorescence ratio is reported as 0.936. With AATATGGTCC the switch fluorescence ratio was 0.99. For AATATGTGAC, the switch fluorescence ratio was 1.05. In the case of AATATGTTAG, the switch fluorescence ratio is reported as 0.977. Sequence AATATTATGC has a switch fluorescence ratio of 1.05. Work on AATATTGGAG yielded a switch fluorescence ratio of 1.04. For AATATTTACA, the switch fluorescence ratio was 0.986. AATATTTAGC gave a switch fluorescence ratio of 1.01. AATATTTGGG gave a switch fluorescence ratio of 1. In the case of AATCACATGG, the switch fluorescence ratio is reported as 0.96. AATCACGCGG gave a switch fluorescence ratio of 1.04. Sequence AATCACGTTC has a switch fluorescence ratio of 0.999. Sequence AATCAGAAGA has a switch fluorescence ratio of 1.01. AATCAGATAC gave a switch fluorescence ratio of 1.24. AATCAGCGGA gave a switch fluorescence ratio of 1.01. Sequence AATCAGTATT has a switch fluorescence ratio of 1.01. Work on AATCATAGCC yielded a switch fluorescence ratio of 0.945. Sequence AATCCAAAGA has a switch fluorescence ratio of 0.993. Work on AATCCATTGG yielded a switch fluorescence ratio of 1.04. AATCCTGAAC was tested, and the switch fluorescence ratio was 1.54. AATCGACTAA was tested, and the switch fluorescence ratio was 1.04. AATCGGACC was tested, and the switch fluorescence ratio was 1. AATCGGGATT was tested, and the switch fluorescence ratio was 0.948. Work on AATCGTGGCT yielded a switch fluorescence ratio of 1.05. AATCGTTGGT gave a switch fluorescence ratio of 0.964. AATCTAATTC showed a switch fluorescence ratio of 0.975. In the case of AATCTGGA, the switch fluorescence ratio is reported as 0.983. In the case of AATCTTAGAA, the switch fluorescence ratio is reported as 1.01. AATCTTGTCG was tested, and the switch fluorescence ratio was 0.918. AATGAAAAAG showed a switch fluorescence ratio of 1.01. AATGAAGGA showed a switch fluorescence ratio of 1.01. With AATGAATAAG the switch fluorescence ratio was 1.01. For AATGACGGGA, the switch fluorescence ratio was 1.05. AATGACGTCA showed a switch fluorescence ratio of 0.98. With AATGACGTTA the switch fluorescence ratio was 1.09. AATGAGCTAC showed a switch fluorescence ratio of 1.22. For AATGAGGAAC, the switch fluorescence ratio was 0.972. AATGAGGCGA showed a switch fluorescence ratio of 1.01. With AATGAGGGTT the switch fluorescence ratio was 0.966. Sequence AATGATAGAC has a switch fluorescence ratio of 1.06. With AATGCACTTT the switch fluorescence ratio was 1.05. AATGCGATGG showed a switch fluorescence ratio of 1.15. AATGCTGAAA gave a switch fluorescence ratio of 0.942. AATGCTGCCC was tested, and the switch fluorescence ratio was 1.04. With AATGCTGGGC the switch fluorescence ratio was 0.976. AATGCTTGTG was tested, and the switch fluorescence ratio was 1.03. AATGGATG was tested, and the switch fluorescence ratio was 0.99. With AATGGATGCT the switch fluorescence ratio was 1.01. AATGGCGAGG was tested, and the switch fluorescence ratio was 1. Work on AATGGCTGGA yielded a switch fluorescence ratio of 0.959. AATGGGCGTG gave a switch fluorescence ratio of 0.999. AATGGGCTTA showed a switch fluorescence ratio of 0.957. For AATGGTAGAC, the switch fluorescence ratio was 1.01. Sequence AATGGTATC has a switch fluorescence ratio of 0.966. Work on AATGGTTGT yielded a switch fluorescence ratio of 0.998. AATGTAATAC gave a switch fluorescence ratio of 3.82. AATGTAGCAA showed a switch fluorescence ratio of 2.82. AATGTCCAGC was tested, and the switch fluorescence ratio was 1.03. AATGTCGCAA gave a switch fluorescence ratio of 1.74. AATGTCTTTA was tested, and the switch fluorescence ratio was 1.02. AATGTGATTC gave a switch fluorescence ratio of 0.975. Sequence AATGTGCTAC has a switch fluorescence ratio of 1.11. For AATGTTAGCT, the switch fluorescence ratio was 1.02. Sequence AATGTTAGGT has a switch fluorescence ratio of 0.971. AATGTTCCAC was tested, and the switch fluorescence ratio was 0.962. AATGTTGGG was tested, and the switch fluorescence ratio was 0.944. AATTAAATGC was tested, and the switch fluorescence ratio was 1.03. Work on AATTAACGTC yielded a switch fluorescence ratio of 1.02. Sequence AATTAATGTT has a switch fluorescence ratio of 0.998. With AATTACCCAG the switch fluorescence ratio was 1. In the case of AATTACTTC, the switch fluorescence ratio is reported as 0.995. In the case of AATTAGAGGA, the switch fluorescence ratio is reported as 0.968. In the case of AATTATATCT, the switch fluorescence ratio is reported as 1.08. AATTATCCGG was tested, and the switch fluorescence ratio was 0.994. With AATTATGTAT the switch fluorescence ratio was 1.05. Sequence AATTATTGGA has a switch fluorescence ratio of 0.955. Work on AATTATTTAG yielded a switch fluorescence ratio of 0.981. Sequence AATTCAAAGT has a switch fluorescence ratio of 0.964. Sequence AATTCAGCCG has a switch fluorescence ratio of 1.12. Sequence AATTCCAGCA has a switch fluorescence ratio of 1.05. AATTCGAGGG gave a switch fluorescence ratio of 0.992. AATTCGCTTT gave a switch fluorescence ratio of 1. AATTCGTACC was tested, and the switch fluorescence ratio was 1.16. In the case of AATTCGTGGG, the switch fluorescence ratio is reported as 0.961. AATTCGTTTT gave a switch fluorescence ratio of 1. Work on AATTGAAAG yielded a switch fluorescence ratio of 1.02. Work on AATTGAAGT yielded a switch fluorescence ratio of 0.981. AATTGCAATT was tested, and the switch fluorescence ratio was 0.965. AATTGCGTAA showed a switch fluorescence ratio of 0.973. AATTGGACTG showed a switch fluorescence ratio of 1.12. AATTGGAG gave a switch fluorescence ratio of 0.99. AATTGGCCAC showed a switch fluorescence ratio of 1.01. Work on AATTGGTTAC yielded a switch fluorescence ratio of 1.06. AATTGTGCTC showed a switch fluorescence ratio of 1.04. Sequence AATTGTTATC has a switch fluorescence ratio of 0.991. AATTTACTCA was tested, and the switch fluorescence ratio was 1.07. AATTTCTAAC gave a switch fluorescence ratio of 0.994. AATTTCTGAT showed a switch fluorescence ratio of 1.03. With AATTTGACGG the switch fluorescence ratio was 1.01. AATTTTGCCA was tested, and the switch fluorescence ratio was 0.987. For AATTTTGTAA, the switch fluorescence ratio was 1.05. For ACAAAAAAA, the switch fluorescence ratio was 0.985. ACAAAAAGCA showed a switch fluorescence ratio of 0.999. ACAAAAGTTC showed a switch fluorescence ratio of 1.02. With ACAAACCCG the switch fluorescence ratio was 1.03. ACAAAGAAGT gave a switch fluorescence ratio of 0.936. In the case of ACAAATTATC, the switch fluorescence ratio is reported as 1.02. ACAACAGTAT showed a switch fluorescence ratio of 1.03. ACAACGATTC showed a switch fluorescence ratio of 1.08. Work on ACAACTTTTA yielded a switch fluorescence ratio of 1.04. ACAAGAATAT gave a switch fluorescence ratio of 0.982. ACAAGCTGCG gave a switch fluorescence ratio of 1.01. For ACAAGCTTCA, the switch fluorescence ratio was 1.34. In the case of ACAAGGGAGG, the switch fluorescence ratio is reported as 0.993. For ACAAGGGTAG, the switch fluorescence ratio was 1. Sequence ACAAGGTCTA has a switch fluorescence ratio of 1. ACAAGGTGT gave a switch fluorescence ratio of 1.28. Work on ACAAGTCGGC yielded a switch fluorescence ratio of 1.02. ACAAGTGCAT was tested, and the switch fluorescence ratio was 1.01. For ACAAGTGTCG, the switch fluorescence ratio was 1.13. Sequence ACAAGTTACC has a switch fluorescence ratio of 1.15. ACAATAGCAG was tested, and the switch fluorescence ratio was 1.05. ACAATGAGGC gave a switch fluorescence ratio of 1.04. Sequence ACAATGCCGC has a switch fluorescence ratio of 1.1. ACAATTTTGT gave a switch fluorescence ratio of 1.04. ACACAAGACT showed a switch fluorescence ratio of 1.29. ACACAAGGGG was tested, and the switch fluorescence ratio was 0.99. With ACACATCAGT the switch fluorescence ratio was 1.02. ACACATCGGG gave a switch fluorescence ratio of 0.995. ACACCAGGAA was tested, and the switch fluorescence ratio was 0.987. With ACACCTGGGG the switch fluorescence ratio was 1.08. ACACCTTTTA gave a switch fluorescence ratio of 1.05. ACACGAACCG was tested, and the switch fluorescence ratio was 1.26. Sequence ACACGATGG has a switch fluorescence ratio of 1.04. ACACGCTGGA showed a switch fluorescence ratio of 0.885. ACACGGTCTT was tested, and the switch fluorescence ratio was 1.01. Work on ACACGGTTCG yielded a switch fluorescence ratio of 0.984. Work on ACACGTCAAT yielded a switch fluorescence ratio of 1.42. Work on ACACGTTTGC yielded a switch fluorescence ratio of 1.04. Work on ACACTAGGGA yielded a switch fluorescence ratio of 0.99. ACACTCAGGT gave a switch fluorescence ratio of 1.31. ACACTCCAGC was tested, and the switch fluorescence ratio was 1.17. For ACACTCGACC, the switch fluorescence ratio was 1.14. ACACTCGGCC gave a switch fluorescence ratio of 1.06. For ACACTGCACT, the switch fluorescence ratio was 1.51. ACACTGGCTA was tested, and the switch fluorescence ratio was 1.04. Work on ACACTGGTCT yielded a switch fluorescence ratio of 1.04. ACACTTTCGA was tested, and the switch fluorescence ratio was 1.06. ACAGAAAAAT showed a switch fluorescence ratio of 0.995. Sequence ACAGACAATA has a switch fluorescence ratio of 1.11. For ACAGAGCACC, the switch fluorescence ratio was 1.12. ACAGAGGACA showed a switch fluorescence ratio of 0.984.
